Here are results for 39 compounds from PubChem BioAssay AID1745853 (National Center for Advancing Translational Sciences (NCATS), 2022).

Values joined by “and” are separate entries in the source; they are usually repeats but may differ in a detail not shown here. Equal values may be shown once. This is one part of the list. The main result of the screen is listed elsewhere. These columns were measured beside it and carry no call.

Holding throughout (experiment): Primary Screen for Target Class Profiling of Small Molecule Inhibitors of Methyltransferases
The target of assay [1] is Glycine N-methyltransferase (Homo sapiens) (UniProt Q14749). The note with it: purified enzyme, MTase-Glo SAH luminescence; measured here: GNMT inhibition; at 40 µM; stronger effect = lower value. An outline of the steps:
(§1)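 Each enzyme was assayed with SAM and its substrate. SAH formation detected by MTase-Glo luminescence; single-point 40 uM screen[…].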

Assay [2] concerns the target Guanidinoacetate N-methyltransferase (Homo sapiens) (UniProt Q14353). The following applies: purified enzyme, MTase-Glo SAH luminescence; measured here: GAMT inhibition; at 40 µM; stronger effect = lower value. An outline of the steps: as §1
Assay [3] deals with Histamine N-methyltransferase (Homo sapiens) (UniProt P50135). The note with it: purified enzyme, MTase-Glo SAH luminescence; measured here: HNMT inhibition; at 40 µM; stronger effect = lower value. An outline of the steps:
as §1

Assay [4] addresses Nicotinamide N-methyltransferase (Homo sapiens) (UniProt P40261). The following applies: purified enzyme, MTase-Glo SAH luminescence; measured here: NNMT inhibition; at 40 µM; stronger effect = lower value. An outline of the steps: as §1
The target of assay [5] is Phenylethanolamine N-methyltransferase (Homo sapiens) (UniProt P11086). The following applies: purified enzyme, MTase-Glo SAH luminescence; measured here: PNMT inhibition; at 40 µM; stronger effect = lower value. An outline of the steps:
as §1
% is set by controls: 0 for no effect and ±100 for the full control effect.

For the compound `COc1cccc(S(=O)(=O)N2CCC3(CC2)CC(OC)CCO3)c1` (centres undefined), the activity change, negative = inhibition in assay [1] was -0.313%; in assay [2] it was 0%; in assay [3], 6.22%; in assay [4], -2.15%; in assay [5], 1.28%.

`COc1ccc(-c2cc(N3CCCC(NC(=O)c4cccc(C)c4)C3)n[nH]2)cc1` (centres undefined): the activity change, negative = inhibition in assay [1] is -12.4%; in assay [2], -12.6%; in assay [3], -8.77%; in assay [4], -24.2%; in assay [5], -11.4%.

On to `CCOc1ccccc1CNC(=O)c1cc2n(n1)CC(C)(C(=O)NC1CCCC1)N(C)C2=O` (centres undefined), for which the activity change, negative = inhibition was 9.73% in assay [1]; -0.81% in assay [2]; 3.63% in assay [3]; -0.235% in assay [4]; -0.558% in assay [5].

`CC1CC(C(O)C(C)(C)O)OC2CC3(C)C4(C)CCC5C(C)(C)C(=O)CCC5(C)C4CCC3(O)C12O` (centres undefined): the activity change, negative = inhibition in assay [1] was 0.91%; in assay [2], 1.02%; in assay [3], 6.27%; in assay [4], -14.8%; in assay [5], -7.11%.

On to `O=Nc1c(-c2c(O)[nH]c3cc(Br)ccc23)[nH]c2ccccc12`, for which the activity change, negative = inhibition was -42.3% in assay [1]; -27.9% in assay [2]; -28.6% in assay [3]; -33.9% in assay [4]; -32.6% in assay [5].

Turning to `CN(Cc1ccccc1C(F)(F)F)C(=O)Nc1ccccc1`, the activity change, negative = inhibition was -3.51% in assay [1]; -2.14% in assay [2]; -2.21% in assay [3]; -3.41% in assay [4]; -4.36% in assay [5].

In the case of `COc1cccc(CN2C(=O)c3nc4ccccc4n3CC2(C)C(=O)NCc2ccccc2)c1OC` (centres undefined), the activity change, negative = inhibition turned out to be 3.6% in assay [1]; 0.751% in assay [2]; 8.53% in assay [3]; 8.66% in assay [4]; 3.63% in assay [5].

Regarding `CC1CCCC(NC(=O)C2(C)Cn3c(cc4sccc43)C(=O)N2Cc2ccc3c(c2)OCO3)C1C` (centres undefined), the activity change, negative = inhibition in assay [1] is -5.25%; in assay [2], 6.9%; in assay [3], -1.59%; in assay [4] it was -7.38%; in assay [5], -0.414%.

Consider `O=C(CCc1nnc2n(Cc3ccc(Cl)cc3)c(=O)c3ccccc3n12)NCCN1CCOCC1`, for which the activity change, negative = inhibition is -16.2% in assay [1]; 1.82% in assay [2]; -0.588% in assay [3]; -4.6% in assay [4]; 1.72% in assay [5].

Regarding `COc1ccccc1CNC(=O)CCc1nnc2n(Cc3ccccc3)c(=O)c3ccccc3n12`, the activity change, negative = inhibition in assay [1] is -2.71%; in assay [2], 4.49%; in assay [3] it was 4.59%; in assay [4], -3.56%; in assay [5], 2.28%.

For the compound `CC1(c2nc3c(C(N)=O)cccc3[nH]2)CCCN1` (centres undefined), the activity change, negative = inhibition in assay [1] is -2.54%; in assay [3], 7.33%.

As for `CCOc1ccccc1CN1C(=O)c2ccc(-c3ccco3)n2CC1(C)C(=O)NC1CCC(C)CC1` (centres undefined), the activity change, negative = inhibition was -7.3% in assay [1]; 4.42% in assay [2]; -2.94% in assay [3]; -24.3% in assay [4]; -2.27% in assay [5].

For `COc1ccc(OC)c(-c2nc3cc4c(cc3cc2CN2CCCOCC2)OCO4)c1`, the activity change, negative = inhibition in assay [1] is -4.63%; in assay [2], -1.16%; in assay [3] it was 0.597%; in assay [4], -26.4%; in assay [5] it was -6.79%.

As for `O=c1c2ccccc2n2c(-c3ccc(O)cc3)nnc2n1Cc1ccc(F)cc1`, the activity change, negative = inhibition in assay [1] is -8.29%; in assay [2], 4.05%; in assay [3] it was 3.23%; in assay [4], -13.9%; in assay [5], -0.009%.

On to `Cc1cccc(CN2C(=O)c3cc4ccccc4n3CC2(C)C(=O)NCCC(C)C)c1` (centres undefined), for which the activity change, negative = inhibition in assay [1] is 3.76%; in assay [2], 2.39%; in assay [3], 4.77%; in assay [4], 0.84%; in assay [5], 0.826%.

With `CC1=C[C@@H](CNS(C)(=O)=O)[C@H](C(C)C)C[C@H]1CC(=O)Nc1ccccn1`, the activity change, negative = inhibition in assay [1] was -11.3%; in assay [2] it was -13.5%; in assay [3] it was -4.88%; in assay [4] it was -16.2%; in assay [5], -13.3%.

Consider `CC(C)=CC/C=C(\C)[C@H]1CC[C@]2(C)[C@@H]1[C@H](O)C[C@@H]1[C@@]3(C)CC[C@H](O)C(C)(C)[C@@H]3[C@@H](O[C@@H]3O[C@H](CO)[C@@H](O)[C@H](O)[C@H]3O)C[C@]12C`, for which the activity change, negative = inhibition was 0.177% in assay [1]; 7.64% in assay [2]; -2.62% in assay [3]; -9.54% in assay [4]; -2.51% in assay [5].

Regarding `O=C(CCc1nnc2n(Cc3ccccc3)c(=O)c3ccccc3n12)NCc1ccc(F)cc1`, the activity change, negative = inhibition in assay [1] was -2.43%; in assay [2], 0%; in assay [3], 1.74%; in assay [4], 10.8%; in assay [5], -0.853%.

Turning to `CN(CC(=O)N1CCOCC1)S(=O)(=O)c1ccc2[nH]c3c(c2c1)CCCC3`, the activity change, negative = inhibition in assay [1] was 8.1%; in assay [2] it was 4.63%; in assay [3], 12.5%; in assay [4], 6.34%; in assay [5], 8.38%.

As to `CN(CCNc1nc(CCN)nc2ccccc12)S(C)(=O)=O`, the activity change, negative = inhibition in assay [1] was -10.1%; in assay [2], -12.3%; in assay [3] it was -8.48%; in assay [4] it was -16.6%; in assay [5], -12.2%.

Turning to `CCCn1c(=O)c2ccc(C(=O)NC(C)CC)cc2n2c(=O)n(CC(=O)NCc3ccc(C)cc3)nc12` (centres undefined), the activity change, negative = inhibition in assay [1] was 2.08%; in assay [2], 1.95%; in assay [3], 6.73%; in assay [4], -1.45%; in assay [5], -0.619%.

For `O=C(NCCc1nc2c(s1)CCCC2)C1NCCc2[nH]cnc21` (centres undefined), the activity change, negative = inhibition was -2.26% in assay [1]; -8.89% in assay [2]; -3.99% in assay [3]; -10.9% in assay [4]; -20.4% in assay [5].

In the case of `Brc1c(Br)c(Br)c2n[nH]nc2c1Br`, the activity change, negative = inhibition in assay [1] is -86.9%; in assay [2], -58.8% and -58%; in assay [3], -71.6%; in assay [4], -69.9% and -74.7%; in assay [5] it was -78.2% and -72.4%.

As for `Cc1cc2c(cc3n2CC(C)(C(=O)NC2CCCCCC2)N(Cc2ccccc2Cl)C3=O)o1` (centres undefined), the activity change, negative = inhibition was -7.65% in assay [1]; -1.96% in assay [2]; -17% in assay [3]; -12.5% in assay [4]; -14.4% in assay [5].

Take `Cc1n[nH]c(C)c1C(N)C(=O)N(Cc1cccnc1)Cc1cccnc1` (centres undefined): the activity change, negative = inhibition in assay [1] was -0.662%; in assay [2], 0.54%; in assay [3], 0.152%; in assay [4] it was 3.33%; in assay [5] it was -25%.

As to `CC(C)[C@H](N)C(=O)OCCOCn1cnc2c(=O)[nH]c(N)nc21`, the values for the activity change, negative = inhibition in assay [2], in assay [4] and in assay [5] were -10.2%, -18.2% and -9.07%, respectively.

As to `CN(NC(=O)CC(=O)NN(C)C(=S)c1ccccc1)C(=S)c1ccccc1`, the activity change, negative = inhibition in assay [1] is 2.9%; in assay [2], 4.76%; in assay [3] it was 1.02%; in assay [4] it was -17.1%; in assay [5] it was -11.6%.

Regarding `COCCCN1C(=O)c2cc(-c3ccccc3)nn2CC1(C)C(=O)NCc1ccccc1OC` (centres undefined), the activity change, negative = inhibition was 2.8% in assay [1]; 2.42% in assay [2]; 6.32% in assay [3]; 5.06% in assay [4]; 2.09% in assay [5].

Consider `Nc1nc2c(nc(Br)n2[C@@H]2O[C@@H]3COP(=O)(O)O[C@H]3[C@H]2O)c(=O)[nH]1`, for which the activity change, negative = inhibition in assay [1] is -0.38%; in assay [2], -0.569%; in assay [3] it was 6.5%; in assay [4] it was -9.49%; in assay [5] it was -2.82%.

`CCC(C)NC(=O)c1ccc2c(=O)n(C(C)C)c3nn(CC(=O)NCc4ccc(C)cc4)c(=O)n3c2c1` (centres undefined): the activity change, negative = inhibition was 5.07% in assay [1]; 0.068% in assay [2]; 1.52% in assay [3]; 3.38% in assay [4]; 4.08% in assay [5].

On to `COc1ccc(Cn2cnc3cccnc32)cc1`, for which the activity change, negative = inhibition is -7.32% in assay [1]; -8.39% in assay [2]; -2.81% in assay [3]; -16.2% in assay [4]; -8.8% in assay [5].

`CN(C)c1ccc(C2NC(C(=O)O)Cc3c2[nH]c2ccccc32)cc1` (centres undefined): the activity change, negative = inhibition in assay [1] was 0.9%; in assay [2] it was 3.57%; in assay [3] it was -4.83%; in assay [4], -3.22%; in assay [5] it was -4.54%.

Turning to `CN1CCN(c2nc(-c3ccc(C(=O)NC4(C(=O)NCC#N)CCCCC4)cc3)cs2)CC1`, the activity change, negative = inhibition in assay [1] was 6.11%; in assay [2], 0.396%; in assay [3], 0.439%; in assay [4], -12.2%; in assay [5] it was -5.86%.

In the case of `Clc1ccc(-c2csc(NN=C3CCCC3)n2)cc1`, the activity change, negative = inhibition in assay [1] was -59.4%; in assay [3], 8.2%; in assay [4], -14%; in assay [5], -4.7%.

Regarding `CC1(C(=O)NC2CCCCCC2)Cn2c(cc3occc32)C(=O)N1Cc1ccccc1F` (centres undefined), the activity change, negative = inhibition in assay [1] was 0.483%; in assay [2], 2.33%; in assay [3], 6.44%; in assay [4], -7.15%; in assay [5] it was -1.78%.

Regarding `CN1C[C@H](NC(=O)c2cnccn2)CCC[C@@H](C(=O)N(C)Cc2cccnc2)CC1=O`, the activity change, negative = inhibition in assay [1] is -1.81%; in assay [2] it was -4.46%; in assay [3], -1.46%; in assay [4] it was -1.55%; in assay [5] it was -2.08%.

With `COc1cccc(Cn2nc3n(CC(C)C)c(=O)c4ccc(C(=O)NC5CCCCC5)cc4n3c2=O)c1`, the activity change, negative = inhibition was 5.24% in assay [1]; 4.48% in assay [2]; 4.23% in assay [3]; -0.52% in assay [4]; -0.384% in assay [5].

In the case of `Cc1ccc(-c2nnc([C@H]3CCN(C(=O)COc4ccccc4)C3)o2)cc1`, the activity change, negative = inhibition in assay [1] was -4.43%; in assay [2], -2.81%; in assay [3], -3.22%; in assay [4], -11.5%; in assay [5], -22%.

On to `CN(CC(=O)NCCC1=CCCCC1)S(=O)(=O)c1ccc2[nH]c3c(c2c1)CCCC3`, for which the activity change, negative = inhibition in assay [1] was -7.99%; in assay [2] it was -1.88%; in assay [3], -8.46%; in assay [4] it was -8.98%; in assay [5] it was -6.74%.
